# Measured values published in article PMC4336329 (PLoS ONE, 2015).
# Among all 310,000 compounds or so, about 2,200 (0.71%) showed an effect of 50% or more. The effect is printed as a negative number. This is one part of the list.
# Molecular target: human ether-à-go-go-related gene (hERG) potassium channel (human, UniProt Q12809)
# Experiment: primary screen, population patch clamp on CHO cells stably expressing hERG
# Sequence of human ether-à-go-go-related gene (hERG) potassium channel (Q12809 whole entry, looked up): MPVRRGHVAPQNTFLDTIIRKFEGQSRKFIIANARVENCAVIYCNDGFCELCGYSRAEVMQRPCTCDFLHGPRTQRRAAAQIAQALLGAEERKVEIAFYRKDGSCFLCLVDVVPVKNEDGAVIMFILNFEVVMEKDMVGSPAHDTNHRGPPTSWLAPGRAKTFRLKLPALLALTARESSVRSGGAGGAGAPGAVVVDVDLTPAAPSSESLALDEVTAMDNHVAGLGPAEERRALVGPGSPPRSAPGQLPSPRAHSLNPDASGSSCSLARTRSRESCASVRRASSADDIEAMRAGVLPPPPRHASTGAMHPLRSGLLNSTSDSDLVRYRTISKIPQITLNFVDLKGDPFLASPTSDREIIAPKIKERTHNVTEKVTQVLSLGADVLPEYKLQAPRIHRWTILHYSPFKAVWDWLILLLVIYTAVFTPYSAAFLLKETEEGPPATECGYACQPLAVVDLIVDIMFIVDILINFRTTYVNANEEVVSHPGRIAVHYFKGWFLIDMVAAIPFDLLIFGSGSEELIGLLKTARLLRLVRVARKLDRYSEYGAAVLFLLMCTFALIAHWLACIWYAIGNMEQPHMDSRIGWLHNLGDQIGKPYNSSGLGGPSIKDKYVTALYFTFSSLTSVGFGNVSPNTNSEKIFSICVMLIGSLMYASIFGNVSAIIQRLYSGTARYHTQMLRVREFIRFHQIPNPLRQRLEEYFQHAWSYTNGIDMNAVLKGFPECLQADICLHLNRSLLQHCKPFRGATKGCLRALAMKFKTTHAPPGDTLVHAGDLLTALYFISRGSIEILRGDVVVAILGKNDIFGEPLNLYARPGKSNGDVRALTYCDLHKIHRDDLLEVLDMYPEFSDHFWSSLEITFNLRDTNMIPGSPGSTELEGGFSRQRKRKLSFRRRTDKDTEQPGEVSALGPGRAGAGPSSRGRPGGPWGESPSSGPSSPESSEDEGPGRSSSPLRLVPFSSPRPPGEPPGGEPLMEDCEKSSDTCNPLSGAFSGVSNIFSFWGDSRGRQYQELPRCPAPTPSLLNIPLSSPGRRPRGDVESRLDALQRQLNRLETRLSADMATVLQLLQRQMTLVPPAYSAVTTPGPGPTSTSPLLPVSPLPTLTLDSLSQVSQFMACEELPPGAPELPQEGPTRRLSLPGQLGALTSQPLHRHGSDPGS
row,SMILES,"hERG current change (%, negative = inhibition) at 1uM"
1,COc1ccc(NC2CCCN(C(=O)CN3C(=O)c4ccccc4C3=O)C2)cc1OC (stereo not drawn),14.8%
2,CC(C(=O)NCC1CCCCC1)N1CCc2ccccc2C1 (stereo not drawn),9.99%
3,O=[N+]([O-])c1cccc(Cl)c1NCCNS(=O)(=O)c1ccc(Cl)cc1,-0.251%
4,CCOC(=O)Cc1csc(NC(=O)NC2(C(F)(F)F)Oc3ccc(Cl)cc3O2)n1 (stereo not drawn),13.9%
5,C=CCCCCCCCCC(=O)NN,18.1%
6,CCSc1nc(N2CCCCC2)c2c(c1C#N)CCCC2,3.61%
7,COCCN(C(=O)CNC(=O)c1cccs1)C(C(=O)NC(C)(C)C)c1ccccc1 (stereo not drawn),11.9%
8,O=C(c1cc(S(=O)(=O)N2CCOCC2)ccc1F)N1CCCc2ccccc21,5.46%
9,CC(NS(=O)(=O)c1cc2c3c(c1)CCC(=O)N3CCC2)c1ccccc1 (stereo not drawn),7.99%
10,CC(C(=O)NC(C)(C)C)N(Cc1cccs1)C(=O)CCN1CCc2ccccc21 (stereo not drawn),7.18%
11,O=C(Nc1ccc(Cl)c(Cl)c1)C1CCN(C(=O)c2ccco2)CC1,4.86%
12,CCOC(=O)CNS(=O)(=O)c1ccc2c3c(cccc13)C(=O)N2CC,20.2%
13,COc1ccc(-n2cc(C#N)c(=O)n(Cc3ccc(F)cc3)c2=O)cc1,9.87%
14,O=C(NCc1ccc(F)cc1)C1CCN(S(=O)(=O)c2cccc3nonc23)CC1,10.7%
15,CCOC(=O)CCCN1CC(O)=C(c2nc(-c3ccc(Cl)cc3)cs2)C1=N,5.67%
16,CC(C)C(=O)Nc1nnc(SCC(=O)NC2CCCC2)s1,8.03%
17,COc1ccc(OS(=O)(=O)c2c(C)noc2C)cc1,6.64%
18,O=C(Cc1ccccc1)N1CCN(C(=O)c2ccco2)CC1,9.62%
19,COc1cccc(NC(=O)Nc2cc(C)on2)c1,22.1%
20,Cc1ccc(Cl)cc1NC(=O)COC(=O)CN1C(=O)C2CCCCC2C1=O (stereo not drawn),8.8%
21,O=C(CSc1nnc(-c2cccs2)n1-c1ccccc1)N1CCOCC1,4.58%
22,CCCn1c(N)c(N(CCOC)C(=O)c2cc3c(s2)CCC(CC)C3)c(=O)[nH]c1=O (stereo not drawn),-4.41%
23,CCn1c(NC(=O)/C=C/c2ccc(F)cc2)nc2ccccc21,15.2%

row,SMILES,"hERG current change (%, negative = inhibition) at 1uM"
1,COc1ccccc1C(=O)Nc1ccc(C)cc1C(=O)c1ccccc1,21.2%
2,Cc1noc(NS(=O)(=O)c2ccc(N/C=C/C(=O)c3ccccc3)cc2)c1C,20.3%
3,CCCCN(C(=O)CSc1nnc(Nc2ccc(C)c(C)c2)s1)c1c(N)n(Cc2ccccc2)c(=O)[nH]c1=O,11.2%
4,C/C(=N\NC(=O)c1cccc(F)c1)c1ccc(NC(=O)Cc2ccccc2)cc1,12.8%
5,O=C(COC(=O)C1CC(=O)N(Cc2ccccc2)C1)c1ccc(Br)cc1 (stereo not drawn),3.7%
6,Cc1ccccc1-n1nnnc1SCC(=O)NCC1(N2CCOCC2)CCCCC1,6.3%
7,COc1ccc(NS(=O)(=O)c2cc(C)ccc2C)cc1,2.77%
8,CCOc1ccc(-n2c(C)cc(/C=N/N(C)C)c2C)cc1,13.4%
9,COc1ccccc1CNS(=O)(=O)CCNC(=O)c1ccccc1,14.1%
10,Cc1ccc(-c2ccc(C(=O)O)c(C)n2)cc1,7.26%
11,Cc1ccc(C)c(CN2C(=O)COc3ccccc32)c1,13.7%
12,Cc1ccc(C2OCC3(CO)COC(c4ccc(C)cc4)N23)cc1 (stereo not drawn),9.27%
13,CCOC(=O)c1[nH]c(=O)[nH]c1CSc1ccccn1,-2.24%
14,Cc1ccccc1NC1=NC(=S)N(CC(N)=O)C12CCOC(C)(C)C2 (stereo not drawn),0.596%
15,COC(=O)c1nn(-c2ccc(OC)cc2)c(=O)cc1O,16.2%
16,Cc1ccccc1COC(=O)CCCC1=NS(=O)(=O)c2ccccc2N1,8.86%
17,CCOc1ccccc1N(CC(=O)NCc1ccccc1)C(=O)CCC(=O)Nc1cc(C)ccn1,6.21%
18,Cc1cc(Cl)ccc1OCCCC(=O)Nc1ccc(S(=O)(=O)Nc2ncccn2)cc1,6.3%
19,N#Cc1c(-c2ccccc2)nc(SCC(=O)Nc2ccc(OC(F)(F)Cl)cc2)[nH]c1=O,19.7%
20,O=C(CNC(=O)OCc1ccccc1)Nc1ccc(Br)cc1C(=O)c1ccccc1Cl,3.8%
21,Cn1c(SCC(=O)c2ccccc2)nc2cccnc21,14.3%
22,CC1CC(C)CN(S(=O)(=O)N2CCCC(C(=O)NC(C)c3ccccc3)C2)C1 (stereo not drawn),10.1%
